According to the supplement of paper PMC10037445:
Whole data set: some 2,900 compounds, median “IRF Lucia reporter activity, fold change vs agonist alone” near 0.9, cut for the highest 2% near 2.8. The list shows a part of the results.

Key:
RAW-Dual [1] = assay: IRF Lucia reporter activity, fold change vs agonist alone; higher = enhanced IRF activity; conditions: library stock concentration (final ~1000-fold dilution): 10 mM, agonist: MPLA (TLR4) […]
Method in brief: (§1)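 Cytotoxic wells were those whose IncuCyte confluency was below 70% of agonist controls in both mask sets. The cells were RAW-Dual macrophages at 50,000 cells/well in DMEM on 384-well plates, dosed with 50 nL of library stock by pin tool, stimulated with a PRR agonist 1 h later, and kept at 37 °C, 5% CO2 for 20 hours. IRF and NF-κB reporter activity, as fold change over agonist-alone wells, came from supernatant read by QuantiLuc luminescence and QuantiBlue absorbance, respectively.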

RAW-Dual [2] = assay: IRF Lucia reporter activity, fold change vs agonist alone; cytotoxicity flag (confluency mask): not cytotoxic; higher = enhanced IRF activity
Method in brief: as §1

RAW-Dual [3] = assay: IRF Lucia reporter activity, fold change vs agonist alone; cytotoxicity flag (confluency mask): cytotoxic (confluency <70% of control); higher = enhanced IRF activity
Method in brief: as §1

[4] = cytotoxicity flag (confluency mask): not cytotoxic
[5] = agonist: 3'3'-cGAMP (STING) 10 ug/mL
[6] = cytotoxicity flag (confluency mask): cytotoxic (confluency <70% of control)

## CCCNCC(O)COc1ccccc1C(=O)CCc1ccccc1 (stereo unspecified)
RAW-Dual [1]; [4]
  IRF Lucia reporter activity: 1.44

## CCCNCC(O)COc1ccccc1C(=O)CCc1ccccc1 (stereo unspecified) (library stock concentration (final ~1000-fold dilution): 10 mM)
RAW-Dual [2]; [5]
  IRF Lucia reporter activity: 0.797
RAW-Dual [2]; agonist: LPS (TLR4) 0.1 ug/mL
  IRF Lucia reporter activity: 1.16

## CC/C(=C(\c1ccccc1)c1ccc(OCCN(C)C)cc1)c1ccccc1.O=C(O)CC(O)(CC(=O)O)C(=O)O (library stock concentration (final ~1000-fold dilution): 10 mM)
RAW-Dual [3]; [5]
  IRF Lucia reporter activity: 0.806
RAW-Dual [3]; agonist: LPS (TLR4) 0.1 ug/mL
  IRF Lucia reporter activity: 0.269

## CC/C(=C(\c1ccccc1)c1ccc(OCCN(C)C)cc1)c1ccccc1.O=C(O)CC(O)(CC(=O)O)C(=O)O
RAW-Dual [1]; [6]
  IRF Lucia reporter activity: 1.74

## CC(NC(=O)C(O)c1cc(F)cc(F)c1)C(=O)NC1C(=O)N(C)c2ccccc2-c2ccccc21 (stereo unspecified) (library stock concentration (final ~1000-fold dilution): 10 mM)
RAW-Dual [2]; [5]
  IRF Lucia reporter activity: 1.02
RAW-Dual [2]; agonist: LPS (TLR4) 0.1 ug/mL
  IRF Lucia reporter activity: 0.915

## CC(NC(=O)C(O)c1cc(F)cc(F)c1)C(=O)NC1C(=O)N(C)c2ccccc2-c2ccccc21 (stereo unspecified)
RAW-Dual [1]; [4]
  IRF Lucia reporter activity: 1.16

## CC(C)n1cc(-c2ccc3c(c2)N(C)CC3)c2c(NS(=O)(=O)c3ccn(C)n3)ccnc21 (library stock concentration (final ~1000-fold dilution): 10 mM)
RAW-Dual [2]; [5]
  IRF Lucia reporter activity: 1.05
RAW-Dual [2]; agonist: LPS (TLR4) 0.1 ug/mL
  IRF Lucia reporter activity: 0.988

## Cl.Cl.NC1CCC(NC2CC2c2ccccc2)CC1 (stereo unspecified) (library stock concentration (final ~1000-fold dilution): 10 mM)
RAW-Dual [2]; [5]
  IRF Lucia reporter activity: 0.516
RAW-Dual [2]; agonist: LPS (TLR4) 0.1 ug/mL
  IRF Lucia reporter activity: 1.33

## O=S(=O)(O)c1ccc2cc(N=Nc3cc(S(=O)(=O)O)c4cccnc4c3O)ccc2c1 (library stock concentration (final ~1000-fold dilution): 10 mM)
RAW-Dual [2]; [5]
  IRF Lucia reporter activity: 0.898
RAW-Dual [2]; agonist: LPS (TLR4) 0.1 ug/mL
  IRF Lucia reporter activity: 0.915

## COc1cc2c(Oc3ccc4[nH]c(C)cc4c3F)ncnc2cc1OCCCN1CCCC1 (library stock concentration (final ~1000-fold dilution): 10 mM)
RAW-Dual [3]; [5]
  IRF Lucia reporter activity: 0.429
RAW-Dual [3]; agonist: LPS (TLR4) 0.1 ug/mL
  IRF Lucia reporter activity: 0.07

## COc1cc2c(Oc3ccc4[nH]c(C)cc4c3F)ncnc2cc1OCCCN1CCCC1
RAW-Dual [1]; [6]
  IRF Lucia reporter activity: 1.86

## CCc1nn(CCCN2CCN(c3cccc(Cl)c3)CC2)c(=O)n1CCOc1ccccc1.Cl
RAW-Dual [1]; [4]
  IRF Lucia reporter activity: 1.29

## CCc1nn(CCCN2CCN(c3cccc(Cl)c3)CC2)c(=O)n1CCOc1ccccc1.Cl (library stock concentration (final ~1000-fold dilution): 10 mM)
RAW-Dual [2]; [5]
  IRF Lucia reporter activity: 0.663
RAW-Dual [2]; agonist: LPS (TLR4) 0.1 ug/mL
  IRF Lucia reporter activity: 1.59

## CC12CCC3c4ccc(O)cc4CCC3C1CCC2OC(=O)CCC1CCCC1 (stereo unspecified)
RAW-Dual [1]; [6]
  IRF Lucia reporter activity: 1.23

## CC12CCC3c4ccc(O)cc4CCC3C1CCC2OC(=O)CCC1CCCC1 (stereo unspecified) (library stock concentration (final ~1000-fold dilution): 10 mM)
RAW-Dual [3]; [5]
  IRF Lucia reporter activity: 0.744
RAW-Dual [3]; agonist: LPS (TLR4) 0.1 ug/mL
  IRF Lucia reporter activity: 1.3

## COc1ccc(OC)c(C2C(C#N)=C(N)Oc3[nH]nc(-c4ccc5ccccc5c4)c32)c1 (stereo unspecified) (library stock concentration (final ~1000-fold dilution): 10 mM)
RAW-Dual [2]; [5]
  IRF Lucia reporter activity: 0.357
RAW-Dual [2]; agonist: LPS (TLR4) 0.1 ug/mL
  IRF Lucia reporter activity: 0.613

## O=C1C[C@@H](c2ccc(O)cc2)Oc2cc(O)cc(O)c21 (library stock concentration (final ~1000-fold dilution): 10 mM)
RAW-Dual [2]; [5]
  IRF Lucia reporter activity: 0.163
RAW-Dual [2]; agonist: LPS (TLR4) 0.1 ug/mL
  IRF Lucia reporter activity: 0.257

## Cc1ccc([N+](=O)[O-])cc1S(=O)(=O)N(C)C
RAW-Dual [1]; [4]
  IRF Lucia reporter activity: 1.14

## Cc1ccc([N+](=O)[O-])cc1S(=O)(=O)N(C)C (library stock concentration (final ~1000-fold dilution): 10 mM)
RAW-Dual [2]; [5]
  IRF Lucia reporter activity: 1.11
RAW-Dual [2]; agonist: LPS (TLR4) 0.1 ug/mL
  IRF Lucia reporter activity: 1.17

## NC(=O)c1ccccn1 (library stock concentration (final ~1000-fold dilution): 10 mM)
RAW-Dual [2]; [5]
  IRF Lucia reporter activity: 1.01
RAW-Dual [2]; agonist: LPS (TLR4) 0.1 ug/mL
  IRF Lucia reporter activity: 1.45

## NC(=O)c1ccccn1
RAW-Dual [1]; [4]
  IRF Lucia reporter activity: 1.02

## COc1cccc(-c2c(C)n(Cc3c(F)cccc3C(F)(F)F)c(=O)n(CC(NCCCC(=O)O)c3ccccc3)c2=O)c1F (stereo unspecified)
RAW-Dual [1]; [4]
  IRF Lucia reporter activity: 1

## COc1cccc(-c2c(C)n(Cc3c(F)cccc3C(F)(F)F)c(=O)n(CC(NCCCC(=O)O)c3ccccc3)c2=O)c1F (stereo unspecified) (library stock concentration (final ~1000-fold dilution): 10 mM)
RAW-Dual [2]; [5]
  IRF Lucia reporter activity: 1.02
RAW-Dual [2]; agonist: LPS (TLR4) 0.1 ug/mL
  IRF Lucia reporter activity: 0.714

## Cl.N=C1CCCN1Cc1[nH]c(=O)[nH]c(=O)c1Cl
RAW-Dual [1]; [4]
  IRF Lucia reporter activity: 1.11

## Cl.N=C1CCCN1Cc1[nH]c(=O)[nH]c(=O)c1Cl (library stock concentration (final ~1000-fold dilution): 10 mM)
RAW-Dual [2]; [5]
  IRF Lucia reporter activity: 1.08
RAW-Dual [2]; agonist: LPS (TLR4) 0.1 ug/mL
  IRF Lucia reporter activity: 1.24

## COc1ccccc1N1CCN(CCN(C(=O)C2CCCCC2)c2ccccn2)CC1.O=C(O)/C=C\C(=O)O (library stock concentration (final ~1000-fold dilution): 10 mM)
RAW-Dual [2]; [5]
  IRF Lucia reporter activity: 1.06
RAW-Dual [2]; agonist: LPS (TLR4) 0.1 ug/mL
  IRF Lucia reporter activity: 0.996

## COc1ccccc1N1CCN(CCN(C(=O)C2CCCCC2)c2ccccn2)CC1.O=C(O)/C=C\C(=O)O
RAW-Dual [1]; [4]
  IRF Lucia reporter activity: 0.961

## COc1ccc(F)c(F)c1C(=O)c1cnc(NC2CCN(S(C)(=O)=O)CC2)nc1N
RAW-Dual [1]; [4]
  IRF Lucia reporter activity: 1.07

## COc1ccc(F)c(F)c1C(=O)c1cnc(NC2CCN(S(C)(=O)=O)CC2)nc1N (library stock concentration (final ~1000-fold dilution): 10 mM)
RAW-Dual [2]; [5]
  IRF Lucia reporter activity: 1
RAW-Dual [2]; agonist: LPS (TLR4) 0.1 ug/mL
  IRF Lucia reporter activity: 0.0195
